Source: PubChem BioAssay AID1508649 (National Center for Advancing Translational Sciences (NCATS), 2021)
Out of some 43,000 compounds screened, about 830 (1.9%) were called active. Inconclusive means that the source gave no clear call. Such entries were picked first, then a sample of the others. The calls were made as follows: active = clear falling dose curves in both reporters; inconclusive = both reporters move, but less clearly or upward; inactive = either reporter flat; the % is the NLuc reporter signal. No potency is given beside an inconclusive call; the fits are too rough.
% is scaled to controls: 0 for no effect and ±100 for the full control effect; potency is read from the fitted curve at half-maximal effect; tags tell the direction and shape of the fitted curve.

Test: Cell-based coincidence reporter assay to measure PMP22 gene transcription in S16 Pmp22-F2sN cells - Primary screen
Details: S16 Pmp22-F2sN Schwann cells (luciferase reporters placed in the Pmp22 gene), FLuc/NLuc coincidence luminescence, 24 h; measured here: NLuc reporter readout, at 57.5 µM (top of the series); activity change, negative = inhibition: at the top concentration
Text: Assay Provider: Jim Inglese Ph.D. National Center for Advancing Translational Science, National Institutes of Health, Rockville, MD CMT is a heterogeneous group of neurological disorders that affect approximately 1 in 2,500 people. In particular, the most common form of CMT, CMT1A is genetically linked to the duplication of the PMP22 gene which leads to Schwann cell overexpression, thus manifesting itself as a typical case of dose-sensitive diseases. To identify small molecule compounds that can mediate the expression of PMP22 we developed a phenotypic assay screening strategy by utilizing genome editing techniques to construct Schwann cell lines containing novel reporter technology to monitor the transcriptional or translational regulation of PMP22. For high sensitivity we use a bioluminescent reporter system embedded in the 3' UTR of the PMP22 gene (S16(c9) Pmp22-F2sN) to identify compounds that inhibit gene expression. […] We can further discriminate the effect of all transcriptionally active molecules on PMP22 translation or stability with an assay that incorporates a short NLuc peptide (HiBiT) at the C-terminus of expressed PMP22 (S16(f8) PMP22-HiBiT) allowing alpha complementation and luminescence detection of membrane-associated PMP22 protein. These assays were screened against the NCATS Sytravon Library Collection. Miniaturization of these assays to 1536-well plate format for quantitative high throughput screening (qHTS) yielded rich data sets immediately from the qHTS assay (S16(c9) Pmp22-F2sN), when compared with data from a cell viability assay (Cell TiterGlo) to identify compounds that decreased the output signals through cellular toxicity to streamline the selection process of actives for subsequent characterization using the HiBiT assay (S16(f8) PMP22-HiBiT).
Cell-based coincidence reporter assay to measure PMP22 gene transcription in S16 Pmp22-F2sN cells PROTOCOL TABLE (format as described by Inglese J, Shamu CE and Guy RK. 2007) SEQUENCE No. (e.g., 1, 2, 3, etc.); […] (e.g., Cells, Incubation, Reagent, etc.); VALUE and DESCRIPTION. 1. Cells. Add 500-1,000 cells in 4 uL in growth media (DMEM High Glucose, No Phenol Red media + 10% heat-inactivated FBS + 1% Pen/Strep supplemented media) per well into Greiner 1536-well white/solid bottom high base, TC-treated plates. 2. Compounds. Library compounds and controls added at 23nL per well, transferred by Pin Tool. 3. Incubation. Incubate plates at 37C, 5% CO2, 95% RH for 24 h. 4. Reagent. Add 3.5uL Nano-Glo Dual-Luciferase Reporter Assay System reagent 1: Lysis and FLuc reagent per well of Greiner 1536-well plates. 5. Incubation. Incubate plates at room temperature for 10 min., protect from light. 6. Detector. FLuc luminescence measured using CCD-based camera (Viewlux). 7. Reagent. Add 3.5uL Nano-Glo Dual-Luciferase Reporter Assay System reagent 2: Stop&Glo reagent per well of Greiner 1536-well plates. 8. Incubation. Incubate plates at room temperature for 10 min., protect from light. 9. Detector. NLuc luminescence measured using CCD-based camera (Viewlux). NOTES (numbers refer to Sequence numbers above; values are from representative experiments) 6. Luminescence Read #1 (FLuc): Clear filter; Exposure = 10 sec, Gain = High, Speed = Slow, Binning = 2X 9. Luminescence Read #2 (NLuc): Clear filter; Exposure = 1 sec, Gain = High, Speed = Slow, Binning = 2X REFERENCES: 1. Inglese J, Shamu CE and Guy RK, Reporting data from high throughput screening of small molecule libraries, Nature Chemical Biology, 2007, 3(8): 438-441. doi.org/10.1038/nchembio0807-438 2. Yasgar A, Shinn P, Jadhav A, Auld DS, Michael S, Zheng W, Austin CP, Inglese J and Simeonov A, Compound Management for Quantitative High-Throughput Screening. J. Assoc. Lab. Auto., 2008, 13: 79-89. doi: 10.1016/j.jala.2007.12.004
With `CC(C)c1ccc(CNC(=O)c2ccc(N3CCCC3)c(NC(=O)NCc3ccc(F)cc3)c2)cc1` the Potency was inconclusive [phenotype inactive, single point].
With `COc1ccc(Cl)cc1NC(=O)Cn1c(=O)n(CCCC(=O)NCCc2ccc(OC)c(OC)c2)c(=O)c2ccccc21` the Potency was inconclusive [phenotype inactive, single point].
In the case of `CCc1ccc(S(=O)(=O)NCc2nc3cccnc3n2Cc2ccccc2Cl)cc1`, the Potency is reported as inconclusive [phenotype inactive, partial curve, poor fit].
In the case of `COc1ccc(S(=O)(=O)n2nc(-c3ccco3)nc2NCc2ccc(OC)c(OC)c2)cc1`, the “activity change, negative = inhibition” value is reported as inactive: -23.7%.
With `COc1ccc(-c2nc3c(C#N)c[nH]n3c2NC2CCCC2)cc1` the Potency was active: 15 µM.
For `CC(NC(=O)c1ccc(Cn2c(=O)c3cccn3c3cccnc32)cc1)c1ccccc1` (stereo unspecified), the “activity change, negative = inhibition” value was inactive: 4.55%.
With `CCN1CCN(c2c(S(=O)(=O)c3ccc(Cl)cc3)cnc3ccccc23)CC1` the Potency was inconclusive [phenotype inactive, single point].
In the case of `CC(C)c1ccc2occ(CC(=O)Nc3cccc(C(F)(F)F)c3)c2c1`, the Potency is reported as inconclusive [phenotype inactive, single point].
With `Cc1ccc(NS(=O)(=O)c2ccc3c(c2)NC(=O)CCS3)cc1F` the Potency was inconclusive [phenotype inactive, single point].
For `CCCCN(CCCC)C1=C(C(=O)c2ccccc2)N(CC)S(=O)(=O)c2ccccc21`, the Potency was inconclusive [phenotype inactive, single point].
With `CCc1ccc(NC(=O)c2ccc3c(O)c(S(=O)(=O)c4ccccc4)c(=O)[nH]c3c2)cc1` the “activity change, negative = inhibition” value was inactive: 16.5%.
With `Cc1ccc(NC(=O)C2CCN(c3nc4ccccc4nc3C(F)(F)F)CC2)cc1C` the Potency was inconclusive [phenotype inactive, single point].
For `O=C(Nc1cc(-c2nc3cc(Cl)ccc3o2)ccc1Cl)c1cccc2ccccc12`, the “activity change, negative = inhibition” value was inactive: 3.18%.
With `COc1cc(NC(=O)c2cc3nc(-c4ccc(C)cc4)cc(C(F)(F)F)n3n2)cc(OC)c1OC` the Potency was inconclusive [phenotype inactive, single point].
For `O=C(c1ccc(Nc2nc3ccccc3n3nnnc23)cc1)N1CCN(c2ccc(F)cc2)CC1`, the Potency was active: 4.01 µM.
With `COc1cc(NC(=O)Cn2c(=O)n(Cc3ccccc3Cl)c(=O)c3cc(OC)c(OC)cc32)cc(OC)c1` the Potency was inconclusive [phenotype inactive, partial curve, poor fit].
